The list shows a part of the results.

The results in this text go back to PMC12820563, “FoxP3 forms a head-to-head dimer in vivo and stabilizes its multimerization on adjacent microsatellites”.

The target of this test is T1, MBP-FoxP1dN (Mus musculus, UniProt P58462 326-579).
T1 sequence: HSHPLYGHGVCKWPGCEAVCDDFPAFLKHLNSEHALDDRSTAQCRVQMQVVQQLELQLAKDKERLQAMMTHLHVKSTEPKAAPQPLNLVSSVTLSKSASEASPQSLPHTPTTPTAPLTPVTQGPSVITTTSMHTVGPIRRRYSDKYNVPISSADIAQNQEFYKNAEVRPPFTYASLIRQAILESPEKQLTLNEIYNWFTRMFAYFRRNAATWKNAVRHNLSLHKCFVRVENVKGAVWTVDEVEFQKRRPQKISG
Description: PD-seq (MBP pull-down with sequencing); 20 mM Tris-HCl pH 7.5, 100 mM NaCl, 1.5 mM MgCl2, 0.4 uM protein, 0.1 uM dsDNA library, 30 min, room temperature, amylose pull-down; high values mean tight binding. The following applies: protein: recombinant; tags: His6-MBP; chain copies: 2; dsDNA, one strand shown. Put shortly: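 Amylose resin was used to capture complexes formed during 30 min at room temperature in Tris pH 7.5 buffer with NaCl and MgCl2 between 0.4 µM His6-MBP-tagged mouse FoxP3 or FoxP1 fragment lacking the N-terminus, expressed in E. coli, and 0.1 µM Klenow-filled double-stranded degenerate DNA library. After three washes, the DNA was released with proteinase K, barcoded by PCR and sequenced on Illumina. Binding is pooled-replicate reads-per-million enrichment, pull-down over input.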
Regarding “GATGATTGTTCTCCCAGCTGATGAATTTCTGTGGTCGAGTAAACAAATTTTCCTAATCTTTCTGTTCAAGCGCCATCTAC”, the binding signal is 0.924 RPM ratio (pull-down/input).

Consider “GATGATTGTTCTCCCAGCTGATGAATTGTCTTGATCGAGTAAACAAATTTTCCTAATCTTTCTGTTCAAGCGCCATCTAC”, for which the binding signal is 1.02 RPM ratio (pull-down/input). As for “GATGATTGTTCTCCCAGCTGATGAATTGCTGTATTCGAGTAAACAAATTTTCCTAATCTTTCTGTTCAAGCGCCATCTAC”, the binding signal was 1.43 RPM ratio (pull-down/input). As for “GATGATTGTTCTCCCAGCTGATGAATTACTTGGCTCGAGTAAACAAATTTTCCTAATCTTTCTGTTCAAGCGCCATCTAC”, the figure is 0.947 RPM ratio (pull-down/input); as for “GATGATTGTTCTCCCAGCTGATGAATTATAGGACTCGAGTAAACAAATTTTCCTAATCTTTCTGTTCAAGCGCCATCTAC”, 0.888 RPM ratio (pull-down/input). Regarding “GATGATTGTTCTCCCAGCTGATGAATTAGATTGATCGAGTAAACAAATTTTCCTAATCTTTCTGTTCAAGCGCCATCTAC”, the binding signal was 0.993 RPM ratio (pull-down/input). Under “GATGATTGTTCTCCCAGCTGATGAATTGACACTTTCGAGTAAACAAATTTTCCTAATCTTTCTGTTCAAGCGCCATCTAC” stands 1.28 RPM ratio (pull-down/input); under “GATGATTGTTCTCCCAGCTGATGAATTTCATCTCTCGAGTAAACAAATTTTCCTAATCTTTCTGTTCAAGCGCCATCTAC”, 0.749 RPM ratio (pull-down/input); under “GATGATTGTTCTCCCAGCTGATGAATTTCACGGCTCGAGTAAACAAATTTTCCTAATCTTTCTGTTCAAGCGCCATCTAC”, 0.843 RPM ratio (pull-down/input). As for “GATGATTGTTCTCCCAGCTGATGAATTTTAGGACTCGAGTAAACAAATTTTCCTAATCTTTCTGTTCAAGCGCCATCTAC”, the figure is 0.866 RPM ratio (pull-down/input); as for “GATGATTGTTCTCCCAGCTGATGAATTAGGAAAGTCGAGTAAACAAATTTTCCTAATCTTTCTGTTCAAGCGCCATCTAC”, 0.866 RPM ratio (pull-down/input); as for “GATGATTGTTCTCCCAGCTGATGAATTTTGATGATCGAGTAAACAAATTTTCCTAATCTTTCTGTTCAAGCGCCATCTAC”, 1.25 RPM ratio (pull-down/input). Take “GATGATTGTTCTCCCAGCTGATGAATTAGGACATTCGAGTAAACAAATTTTCCTAATCTTTCTGTTCAAGCGCCATCTAC”: the binding signal was 0.907 RPM ratio (pull-down/input). On to “GATGATTGTTCTCCCAGCTGATGAATTATGATCGTCGAGTAAACAAATTTTCCTAATCTTTCTGTTCAAGCGCCATCTAC”, for which the binding signal is 0.955 RPM ratio (pull-down/input). As to “GATGATTGTTCTCCCAGCTGATGAATTCACTATCTCGAGTAAACAAATTTTCCTAATCTTTCTGTTCAAGCGCCATCTAC”, the binding signal was 0.823 RPM ratio (pull-down/input).

Turning to “GATGATTGTTCTCCCAGCTGATGAATTCATGGGTTCGAGTAAACAAATTTTCCTAATCTTTCTGTTCAAGCGCCATCTAC”, the binding signal is 0.828 RPM ratio (pull-down/input). Under “GATGATTGTTCTCCCAGCTGATGAATTTCGTGGTTCGAGTAAACAAATTTTCCTAATCTTTCTGTTCAAGCGCCATCTAC” stands 0.868 RPM ratio (pull-down/input); under “GATGATTGTTCTCCCAGCTGATGAATTGGAACCATCGAGTAAACAAATTTTCCTAATCTTTCTGTTCAAGCGCCATCTAC”, 0.908 RPM ratio (pull-down/input). Under “GATGATTGTTCTCCCAGCTGATGAATTAATTCAATCGAGTAAACAAATTTTCCTAATCTTTCTGTTCAAGCGCCATCTAC” stands 0.961 RPM ratio (pull-down/input).

As for “GATGATTGTTCTCCCAGCTGATGAATTGGACTCATCGAGTAAACAAATTTTCCTAATCTTTCTGTTCAAGCGCCATCTAC”, the binding signal is 0.851 RPM ratio (pull-down/input). Under “GATGATTGTTCTCCCAGCTGATGAATTTACCCCGTCGAGTAAACAAATTTTCCTAATCTTTCTGTTCAAGCGCCATCTAC” stands 1.07 RPM ratio (pull-down/input); under “GATGATTGTTCTCCCAGCTGATGAATTTCCGGGTTCGAGTAAACAAATTTTCCTAATCTTTCTGTTCAAGCGCCATCTAC”, 0.836 RPM ratio (pull-down/input); under “GATGATTGTTCTCCCAGCTGATGAATTGTTCAAATCGAGTAAACAAATTTTCCTAATCTTTCTGTTCAAGCGCCATCTAC”, 1.24 RPM ratio (pull-down/input). As for “GATGATTGTTCTCCCAGCTGATGAATTAGGGGCGTCGAGTAAACAAATTTTCCTAATCTTTCTGTTCAAGCGCCATCTAC”, the figure is 0.879 RPM ratio (pull-down/input); as for “GATGATTGTTCTCCCAGCTGATGAATTTGAGTACTCGAGTAAACAAATTTTCCTAATCTTTCTGTTCAAGCGCCATCTAC”, 0.865 RPM ratio (pull-down/input). Turning to “GATGATTGTTCTCCCAGCTGATGAATTTCGCGAATCGAGTAAACAAATTTTCCTAATCTTTCTGTTCAAGCGCCATCTAC”, the binding signal was 0.891 RPM ratio (pull-down/input). As for “GATGATTGTTCTCCCAGCTGATGAATTATGTTTCTCGAGTAAACAAATTTTCCTAATCTTTCTGTTCAAGCGCCATCTAC”, the figure is 1.46 RPM ratio (pull-down/input); as for “GATGATTGTTCTCCCAGCTGATGAATTCTGTTTATCGAGTAAACAAATTTTCCTAATCTTTCTGTTCAAGCGCCATCTAC”, 2.76 RPM ratio (pull-down/input); as for “GATGATTGTTCTCCCAGCTGATGAATTTTATCCTTCGAGTAAACAAATTTTCCTAATCTTTCTGTTCAAGCGCCATCTAC”, 0.87 RPM ratio (pull-down/input). Under “GATGATTGTTCTCCCAGCTGATGAATTGCCCACGTCGAGTAAACAAATTTTCCTAATCTTTCTGTTCAAGCGCCATCTAC” stands 0.92 RPM ratio (pull-down/input); under “GATGATTGTTCTCCCAGCTGATGAATTCCCGCCATCGAGTAAACAAATTTTCCTAATCTTTCTGTTCAAGCGCCATCTAC”, 0.843 RPM ratio (pull-down/input); under “GATGATTGTTCTCCCAGCTGATGAATTACTAAATTCGAGTAAACAAATTTTCCTAATCTTTCTGTTCAAGCGCCATCTAC”, 1.27 RPM ratio (pull-down/input).
